# Some of the results follow.
# Experiments:
# Experiment in all cases: glycan array binding signal (z-score within array); higher = stronger binding
# Conditions in all cases: glycan notation: IUPAC condensed, linker removed
# [1] = biological target: Fuc(a1-2)[Gal(a1-4)]Gal(b1-4)GlcNAc
# Summary of the method: (§1)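 Arrays were curated from the Consortium for Functional Glycomics database, 3228 in total, and kept only where the protein sequence was available. Binding is expressed as a within-array Z-score. This score was averaged across arrays of the same protein sequence at different concentrations or buffers and across linkers, and negative values can be read as non-binding.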
# [2] = biological target: Fuc(a1-2)[GalNAc(a1-3)]Gal
# Summary of the method: as §1
# [3] = biological target: Fuc(a1-2)[GalNAc(a1-3)]Gal(b1-3)GalNAc(a1-3)[Fuc(a1-2)]Gal(b1-4)GlcNAc
# Summary of the method: as §1
# [4] = biological target: Fuc(a1-2)[GalNAc(a1-3)]Gal(b1-3)GalNAc(b1-3)Gal(a1-4)Gal(b1-4)Glc
# Summary of the method: as §1
# [5] = biological target: Fuc(a1-2)[GalNAc(a1-3)]Gal(b1-3)GlcNAc
# Summary of the method: as §1
# [6] = biological target: Fuc(a1-2)[GalNAc(a1-3)]Gal(b1-3)GlcNAc(b1-2)Man(a1-3)[Fuc(a1-2)[GalNAc(a1-3)]Gal(b1-3)GlcNAc(b1-2)Man(a1-6)]Man(b1-4)GlcNAc(b1-4)GlcNAc
# Summary of the method: as §1
# [7] = biological target: Fuc(a1-2)[GalNAc(a1-3)]Gal(b1-3)GlcNAc(b1-2)Man(a1-3)[Fuc(a1-2)[GalNAc(a1-3)]Gal(b1-3)GlcNAc(b1-2)Man(a1-6)]Man(b1-4)GlcNAc(b1-4)[Fuc(a1-6)]GlcNAc
# Summary of the method: as §1
# [8] = biological target: Fuc(a1-2)[GalNAc(a1-3)]Gal(b1-3)GlcNAc(b1-3)GalNAc
# Summary of the method: as §1
# [9] = biological target: Fuc(a1-2)[GalNAc(a1-3)]Gal(b1-3)GlcNAc(b1-6)GalNAc
# Summary of the method: as §1
# [10] = biological target: Fuc(a1-2)[GalNAc(a1-3)]Gal(b1-4)Glc
# Summary of the method: as §1
# [11] = biological target: Fuc(a1-2)[GalNAc(a1-3)]Gal(b1-4)GlcNAc
# Summary of the method: as §1
# [12] = biological target: Fuc(a1-2)[GalNAc(a1-3)]Gal(b1-4)GlcNAc(b1-2)Man
# Summary of the method: as §1
# [13] = biological target: Fuc(a1-2)[GalNAc(a1-3)]Gal(b1-4)GlcNAc(b1-2)Man(a1-3)[Fuc(a1-2)[GalNAc(a1-3)]Gal(b1-4)GlcNAc(b1-2)Man(a1-6)]Man(b1-4)GlcNAc(b1-4)GlcNAc
# Summary of the method: as §1
# [14] = biological target: Fuc(a1-2)[GalNAc(a1-3)]Gal(b1-4)GlcNAc(b1-2)Man(a1-3)[Fuc(a1-2)[GalNAc(a1-3)]Gal(b1-4)GlcNAc(b1-2)Man(a1-6)]Man(b1-4)GlcNAc(b1-4)[Fuc(a1-6)]GlcNAc
# Summary of the method: as §1
# [15] = biological target: Fuc(a1-2)[GalNAc(a1-3)]Gal(b1-4)GlcNAc(b1-3)Gal(b1-4)GlcNAc
# Summary of the method: as §1
# [16] = biological target: Fuc(a1-2)[GalNAc(a1-3)]Gal(b1-4)GlcNAc(b1-3)Gal(b1-4)GlcNAc(b1-3)Gal(b1-4)GlcNAc
# Summary of the method: as §1
# [17] = biological target: Fuc(a1-2)[GalNAc(a1-3)]Gal(b1-4)GlcNAc(b1-3)GalNAc
# Summary of the method: as §1
# [18] = biological target: Fuc(a1-2)[GalNAc(a1-3)]Gal(b1-4)GlcNAc(b1-3)[Fuc(a1-2)[GalNAc(a1-3)]Gal(b1-4)GlcNAc(b1-6)]GalNAc
# Summary of the method: as §1
# [19] = biological target: Fuc(a1-2)[GalNAc(a1-3)]Gal(b1-4)GlcNAc(b1-6)GalNAc
# Summary of the method: as §1
# [20] = biological target: Fuc(a1-2)[GalNAc(a1-3)]Gal(b1-4)[Fuc(a1-3)]GlcNAc
# Summary of the method: as §1
# [21] = biological target: Fuc(a1-2)[GalNAc(a1-3)]Gal(b1-4)[Fuc(a1-3)]GlcNAc(b1-3)GalNAc
# Summary of the method: as §1
# [22] = biological target: Fuc(a1-2)[GalNAc(a1-4)]Gal(b1-4)GlcNAc
# Summary of the method: as §1
# [23] = biological target: Fuc(a1-2)[GalNAc(b1-3)]Gal
# Summary of the method: as §1
# Fuc(a1-3)GlcNAc = biological target: Fuc(a1-3)GlcNAc
# Summary of the method: as §1
# [24] = biological target: Fuc(a1-3)[Gal(b1-4)]Glc6S
# Summary of the method: as §1
# [25] = biological target: Fuc(a1-3)[Gal(b1-4)]GlcNAc
# Summary of the method: as §1
# [26] = biological target: Fuc(a1-3)[Gal(b1-4)]GlcNAc(b1-2)Man
# Summary of the method: as §1
# [27] = biological target: Fuc(a1-3)[Gal(b1-4)]GlcNAc(b1-2)Man(a1-3)[Fuc(a1-3)[Gal(b1-4)]GlcNAc(b1-2)Man(a1-6)]Man(b1-4)GlcNAc(b1-4)GlcNAc
# Summary of the method: as §1
# [28] = biological target: Fuc(a1-3)[Gal(b1-4)]GlcNAc(b1-2)Man(a1-3)[Fuc(a1-3)[Gal(b1-4)]GlcNAc(b1-2)Man(a1-6)]Man(b1-4)GlcNAc(b1-4)[Fuc(a1-6)]GlcNAc
# Summary of the method: as §1
# [29] = biological target: Fuc(a1-3)[Gal(b1-4)]GlcNAc(b1-3)Gal(b1-3)[Fuc(a1-4)]GlcNAc
# Summary of the method: as §1
# [30] = biological target: Fuc(a1-3)[Gal(b1-4)]GlcNAc(b1-3)Gal(b1-4)[Fuc(a1-3)]GlcNAc
# Summary of the method: as §1
# [31] = biological target: Fuc(a1-3)[Gal(b1-4)]GlcNAc(b1-3)Gal(b1-4)[Fuc(a1-3)]GlcNAc(b1-3)Gal(b1-4)[Fuc(a1-3)]GlcNAc
# Summary of the method: as §1
# [32] = biological target: Fuc(a1-3)[Gal(b1-4)]GlcNAc(b1-3)GalNAc
# Summary of the method: as §1
# [33] = biological target: Fuc(a1-3)[Gal(b1-4)]GlcNAc(b1-6)GalNAc
# Summary of the method: as §1
# [34] = biological target: Fuc(a1-3)[Gal(b1-4)]GlcNAc(b1-6)[Gal(b1-3)GlcNAc(b1-3)]Gal(b1-4)Glc
# Summary of the method: as §1
# [35] = biological target: Fuc(a1-3)[Gal(b1-4)]GlcNAc6S
# Summary of the method: as §1
# [36] = biological target: Fuc(a1-3)[Gal3S(b1-4)]Glc
# Summary of the method: as §1
# [37] = biological target: Fuc(a1-3)[Gal3S(b1-4)]GlcNAc
# Summary of the method: as §1
binder,measurement,setting,value
PX9961H-bth-557-24-557 (Bacteroides thetaiotaomicron) (protein) EETRTEVEKKNYMNNAEEAKDVLLGVYRTNTLDAMYGYYLSILFNLGTDISQVEGSGNENFRIIPTNSFPTTQSEVQQTWAALYTGIYRANDFLERISNKIGSYTTTDKKLATLYIAEARALRGMFYFELVRRFGNVVLMTSTQMSNQNPATYVQSAPEKVYEYIEDDLLYACDILPYATDDQYRESNDYRFSKGAALGLLTKVYATWAGYPVKDESKWEAAAKTARILVESGKHGLLKDYEQLWKNTCNGTWDPTESLIEISFYSPTVSGNSDPVGRIGKWNGVKTTAIAGVRGSCAANVKVVHTFVLDWREDVSDIRRDLSIANYQYTDTKKSLWVAGASDTDESAAEKDADPTKAQKNKQNYTPAKWDIQKYVTTNSFINNDKSNVNWYFLRYADVLLLYAEALNEWKHGPDAEAYNAINAVRRRGYGNPSNTSACDLPQGLDETSFREAVRKERSYELSFEGHRRQDLIRWGIYYKTVQATAKELGYWWEGTGSPNYSVATYTEEGKHELFPIPQRDMDLCIQFNQNPKW,glycan array binding signal (z-score),[1],0.377
same,glycan array binding signal (z-score),[2],-0.417
same,glycan array binding signal (z-score),[3],-0.274
same,glycan array binding signal (z-score),[4],-0.41
same,glycan array binding signal (z-score),[5],-0.405
same,glycan array binding signal (z-score),[6],0.927
same,glycan array binding signal (z-score),[7],-0.407
same,glycan array binding signal (z-score),[8],-0.349
same,glycan array binding signal (z-score),[9],0.217
same,glycan array binding signal (z-score),[10],-0.47
same,glycan array binding signal (z-score),[11],-0.488
same,glycan array binding signal (z-score),[12],-0.435
same,glycan array binding signal (z-score),[13],3.08
same,glycan array binding signal (z-score),[14],-0.289
same,glycan array binding signal (z-score),[15],-0.215
same,glycan array binding signal (z-score),[16],-0.119
same,glycan array binding signal (z-score),[17],-0.417
same,glycan array binding signal (z-score),[18],-0.333
same,glycan array binding signal (z-score),[19],1.81
same,glycan array binding signal (z-score),[20],-0.321
same,glycan array binding signal (z-score),[21],2.15
same,glycan array binding signal (z-score),[22],0.042
same,glycan array binding signal (z-score),[23],0.036
same,glycan array binding signal (z-score),Fuc(a1-3)GlcNAc,-0.19
same,glycan array binding signal (z-score),[24],-0.154
same,glycan array binding signal (z-score),[25],-0.342
same,glycan array binding signal (z-score),[26],-0.167
same,glycan array binding signal (z-score),[27],0.247
same,glycan array binding signal (z-score),[28],0.019
same,glycan array binding signal (z-score),[29],-0.482
same,glycan array binding signal (z-score),[30],-0.339
same,glycan array binding signal (z-score),[31],-0.101
same,glycan array binding signal (z-score),[32],-0.032
same,glycan array binding signal (z-score),[33],-0.376
same,glycan array binding signal (z-score),[34],-0.553
same,glycan array binding signal (z-score),[35],0.629
same,glycan array binding signal (z-score),[36],-0.743
same,glycan array binding signal (z-score),[37],-0.246

# — the supplement of paper PMC8728848
